The record followed here is the antibiotic and cytotoxicity screens of Wong et al. (2023).

The list shows a part of the results.

In one test the test system is HSkMC. Nature of the test: cytotoxicity call (relative viability < 0.9). Particulars: 10 µM.
Another test concerns HepG2. Nature of the test: cytotoxicity call (relative viability < 0.9). Particulars: 10 µM.
In another test the test system is S. aureus RN4220. Kind of test: growth inhibition call (relative growth <= 0.2). Particulars: 50 µM.

On to `Cc1noc(C)c1NC(=O)Nc1ccc2c(c1)C(=O)N([C@H](C)CO)C[C@@H](C)[C@@H](CN(C)C(=O)Nc1ccc3c(c1)OCO3)OCCCC[C@@H](C)O2`, for which the cytotoxicity call in the test on HSkMC and with HepG2 was “inactive” each time. Moreover, the growth inhibition call in the test with S. aureus RN4220 is “inactive”.

Take `C[C@@H]1CN([C@@H](C)CO)C(=O)c2cc(NC(=O)C3CC3)ccc2O[C@@H]1CN(C)C(=O)NC1CCCCC1`: the cytotoxicity call in the test on HSkMC and in the test on HepG2 was “inactive” throughout. For the same molecule, in the test on S. aureus RN4220, the growth inhibition call is “inactive”.

Take `C[C@H]1CN([C@@H](C)CO)C(=O)c2cc(NS(C)(=O)=O)ccc2O[C@@H]1CN(C)C(=O)NC1CCCCC1`: the cytotoxicity call in the test with HSkMC and in the test on HepG2 was “inactive” each time. Further, in the test with S. aureus RN4220, the growth inhibition call is “inactive”.

Take `C[C@@H]1CN([C@H](C)CO)C(=O)c2cc(NC(=O)C3CCCCC3)ccc2O[C@@H](C)CCCCO[C@@H]1CN(C)C(=O)Nc1ccccc1`: the cytotoxicity call in the test with HSkMC and in the test with HepG2 was “inactive” throughout. Also, the growth inhibition call with S. aureus RN4220 is “inactive”.

On to `OC[C@H]1O[C@@H](n2cnc3c(N[C@@H]4CCOC4)ncnc32)[C@H](O)[C@@H]1O`, for which the cytotoxicity call in the test with HSkMC and with HepG2 was “inactive” throughout. Further, in the test with S. aureus RN4220, the growth inhibition call was “inactive”.

Take `Cc1noc(C)c1NC(=O)N(C)C[C@@H]1Oc2ccc(NS(=O)(=O)c3cccs3)cc2CC(=O)N([C@H](C)CO)C[C@@H]1C`: the cytotoxicity call with HSkMC and in the test on HepG2 was “inactive” in each case. In addition, in the test on S. aureus RN4220, the growth inhibition call was “inactive”.

As for `C[C@@H]1CCCCO[C@@H](CN(C)C(=O)c2ccccc2)[C@H](C)CN([C@@H](C)CO)C(=O)c2cc(NC(=O)Nc3ccc(C(F)(F)F)cc3)ccc2O1`, the cytotoxicity call with HSkMC and with HepG2 was “inactive” throughout. Moreover, the growth inhibition call with S. aureus RN4220 is “inactive”.

With `CO[C@H]1CN(C)C(=O)c2ccc(NS(=O)(=O)c3ccccc3)cc2OC[C@H](C)N(C(=O)NC(C)C)C[C@H]1C`, the cytotoxicity call in the test on HSkMC and in the test on HepG2 was “inactive” each time. Besides, the growth inhibition call with S. aureus RN4220 is “inactive”.

Turning to `C[C@H]1CN([C@@H](C)CO)C(=O)CCCn2cc(nn2)CO[C@H]1CN(C)C(=O)Nc1ccc(N2CCN(C)CC2)cc1`, the cytotoxicity call with HSkMC and with HepG2 was “inactive” in each case. The growth inhibition call with S. aureus RN4220 was “inactive”.

`C[C@@H]1CN([C@@H](C)CO)C(=O)Cc2cc(NS(=O)(=O)c3ccc(F)cc3)ccc2O[C@H]1CN(C)Cc1ccncc1`: the cytotoxicity call in the test with HSkMC and in the test on HepG2 was “inactive” throughout. The growth inhibition call in the test on S. aureus RN4220 was “inactive”.

For `C[C@@H]1CN([C@@H](C)CO)C(=O)c2cc(NC(=O)Cc3ccccc3)ccc2O[C@@H](C)CCCCO[C@@H]1CN(C)Cc1ccc(C(=O)O)cc1`, the cytotoxicity call in the test on HSkMC and in the test with HepG2 was “inactive” each time. Also, in the test on S. aureus RN4220, the growth inhibition call was “inactive”.

For the molecule `C[C@@H]1CN([C@H](C)CO)C(=O)c2cc(C#C[C@@H](C)O)cnc2O[C@@H]1CN(C)Cc1cncnc1`, the cytotoxicity call with HSkMC and in the test on HepG2 was “inactive” throughout. Also, in the test on S. aureus RN4220, the growth inhibition call was “inactive”.

Consider `O=C(CCCCCNC(=O)OCc1ccc(CO[C@H]2C[C@@H](c3csc4ccccc34)C=C(C(=O)N3CCN(Cc4ccccc4)CC3)O2)cc1)NO`, for which the cytotoxicity call in the test with HSkMC and with HepG2 was “inactive” throughout. For the same molecule, the growth inhibition call in the test on S. aureus RN4220 is “inactive”.

For the molecule `C[C@@H]1CN([C@H](C)CO)C(=O)c2cc(NS(C)(=O)=O)ccc2O[C@@H]1CN(C)Cc1ccc(C(F)(F)F)cc1`, the cytotoxicity call in the test on HSkMC and in the test with HepG2 was “inactive” each time. Further, the growth inhibition call in the test with S. aureus RN4220 is “inactive”.

As to `C[C@H](CO)N1C[C@H](C)[C@H](CN(C)C(=O)Nc2cccc3ccccc23)Oc2ccc(NC(=O)Cn3cnnn3)cc2C1=O`, the cytotoxicity call in the test on HSkMC and in the test on HepG2 was “inactive” in each case. Moreover, the growth inhibition call with S. aureus RN4220 is “inactive”.

For `C[C@H](CO)N1C[C@H](C)[C@H](CN(C)C(=O)Nc2cccc3ccccc23)Oc2ccc(NC(=O)Cc3cn(C)c4ccccc34)cc2CC1=O`, the cytotoxicity call in the test on HSkMC and with HepG2 was “inactive” in each case. In addition, the growth inhibition call in the test with S. aureus RN4220 is “inactive”.

With `Cc1noc(C)c1S(=O)(=O)Nc1ccc2c(c1)C(=O)N([C@H](C)CO)C[C@@H](C)[C@@H](CN(C)S(=O)(=O)c1c(C)noc1C)O2`, the cytotoxicity call in the test with HSkMC and with HepG2 was “inactive” in each case. For the same molecule, in the test with S. aureus RN4220, the growth inhibition call was “inactive”.

For `CNC1C(O)C(NC)C2OC3(O)C(=O)CC(C)OC3OC2C1O.Cl.Cl` (centres undefined), the cytotoxicity call in the test with HSkMC and with HepG2 was “inactive” each time. Moreover, the growth inhibition call in the test with S. aureus RN4220 was “inactive”.

Take `CC(=O)OC1(C(C)=O)CCC2C3C=C(Cl)C4=CC(=O)C5CC5C4(C)C3CCC21C` (centres undefined): the cytotoxicity call in the test with HSkMC and with HepG2 was “inactive” throughout. Also, in the test with S. aureus RN4220, the growth inhibition call was “inactive”.

Regarding `C[C@@H](N)CCCC(C)(C)O`, the cytotoxicity call in the test with HSkMC and in the test with HepG2 was “inactive” in each case. In addition, in the test with S. aureus RN4220, the growth inhibition call was “inactive”.

As to `C[C@H](CO)N1C[C@H](C)[C@H](CN(C)S(=O)(=O)c2cccs2)Oc2ccc(NC(=O)c3ccncc3)cc2CC1=O`, the cytotoxicity call in the test on HSkMC and in the test with HepG2 was “inactive” in each case. The growth inhibition call with S. aureus RN4220 was “inactive”.

For `N#C[C@H]1N[C@@H](CO)[C@H]1c1ccccc1`, the cytotoxicity call in the test with HSkMC and in the test with HepG2 was “inactive” in each case. Also, the growth inhibition call with S. aureus RN4220 was “inactive”.

Regarding `c1ccc(CCNc2ccnc3cc4ccccc4cc23)cc1`, the cytotoxicity call in the test on HSkMC and with HepG2 was “active” each time. Moreover, the growth inhibition call with S. aureus RN4220 is “active”.

On to `Cc1noc(C)c1NC(=O)N(C)C[C@@H]1OCCCC[C@@H](C)Oc2ccc(NC(=O)Nc3cccc4ccccc34)cc2C(=O)N([C@H](C)CO)C[C@@H]1C`, for which the cytotoxicity call in the test on HSkMC and in the test with HepG2 was “inactive” each time. In the test with S. aureus RN4220, the growth inhibition call was “inactive”.

Turning to `C=C(C)CC1(N[C@H](C)c2ccccc2)CCCCC1`, the cytotoxicity call in the test with HSkMC and with HepG2 was “inactive” each time. The growth inhibition call in the test with S. aureus RN4220 was “inactive”.

With `O=C1/C(=C/C=C/c2ccco2)CCC/C1=C\C=C\c1ccco1`, the cytotoxicity call with HSkMC and with HepG2 was “inactive” in each case. In addition, in the test with S. aureus RN4220, the growth inhibition call is “inactive”.

With `C[C@@H]1CN([C@@H](C)CO)C(=O)CCCn2cc(nn2)CO[C@H]1CN(C)C(=O)CCCN(C)C`, the cytotoxicity call in the test with HSkMC and with HepG2 was “inactive” throughout. For the same molecule, in the test on S. aureus RN4220, the growth inhibition call was “inactive”.

`C[C@@H]1CCCCO[C@H](CN(C)C(=O)C2CCCCC2)[C@@H](C)CN([C@H](C)CO)C(=O)c2cc(NS(=O)(=O)c3ccccc3)ccc2O1`: the cytotoxicity call in the test on HSkMC (human skeletal muscle cells) and with HepG2 was “inactive” each time. Also, the growth inhibition call in the test on S. aureus RN4220 is “inactive”.
